From PubChem BioAssay AID1240 (Sanford-Burnham Center for Chemical Genomics, 2008)
The campaign covered roughly 50,000 compounds. About 800 (1.6%) showed an effect of 50% or more. Some of the results follow.

target: Bcl-2-like protein 10 (Homo sapiens) (UniProt Q9HD36); assay: Phenotype converters, Bcl-B/TR3 peptide binding displacement, primary biochemical FP (AID 1240); details: GST-Bcl-B / FITC-TR3 peptide fluorescence polarization; stronger effect = higher value; compound at 3.75 mg/L;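 note: 0% = Bcl-B with tracer peptide and DMSO and 100% = tracer peptide lacking Bcl-B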
UniProt Q9HD36, sequence (Q9HD36 whole entry, looked up): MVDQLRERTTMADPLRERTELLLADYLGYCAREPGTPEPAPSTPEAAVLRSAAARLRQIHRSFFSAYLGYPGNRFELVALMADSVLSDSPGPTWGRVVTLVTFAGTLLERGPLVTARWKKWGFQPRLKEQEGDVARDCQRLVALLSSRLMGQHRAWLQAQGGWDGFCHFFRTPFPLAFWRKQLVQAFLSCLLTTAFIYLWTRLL

In order of rising displacement:
1. COc1ccc(/C=C2/C(=O)NC(=O)N(c3ccc(C(C)C)cc3)C2=O)cc1O  -28.6%
2. N#CCOc1ccccc1/C=N/c1sc2c(c1C#N)CCCC2  -19.9%
3. Cc1ccc(C)c(N(CC(=O)O)S(=O)(=O)c2ccccc2)c1  -18.2%
4. CCN(CC)/C(=C\C(=O)c1ccc(C)cc1)c1ccccc1  -14.8%
5. Cc1c(Cl)cccc1NC(=O)C1C(c2ccccc2)=C1c1ccccc1  -9.6%
6. O=C(Cc1ccccc1)NCC1CCCO1 (stereo unspecified)  -9.3%
7. CC(C)(C)C1(C)OC(O)(C(F)(F)C(F)F)CC1=O (stereo unspecified)  -9.2%
8. CCOC(=O)c1c(NC(=O)CCc2ccccc2)sc(C(=O)Nc2ccccc2OC)c1C  -6.4%
9. O=C(NCCc1ccc(F)cc1)C(=O)Nc1cccc(C(F)(F)F)c1  -6.3%
10. COc1ccccc1OCC(=O)Nc1cccc(C(C)=O)c1  -5.2%
11. Cc1onc(C(=O)N2CCC(C(N)=O)CC2)c1-c1ccccc1Cl  -5%
12. Cc1c(NC(=O)/C=C\C(=O)O)c(=O)n(-c2ccccc2)n1C  -3.5%
13. COc1ccc(C(C)NC(=O)CCc2ccccc2)cc1 (stereo unspecified)  -3.5%
14. COc1ccccc1C(=O)Nc1nnc(-c2ccco2)s1  -2.8%
15. O=C(Nc1c(C(=O)NCc2ccccc2)cnn1-c1ccccc1)c1cccc(F)c1  -1.5%
16. Cc1cc(C)c(/C=c2\sc3nc4cc(Br)cnc4n3c2=O)cc1C  0.7%
17. COc1ccccc1/C=C/C=N\N1CCN(c2ccc(Cl)cc2)CC1  2.2%
18. COc1ccc2c(C)cc(=O)oc2c1C  2.7%
19. COc1ccc(S(=O)(=O)N2CCN(C3CCCCC3)CC2)cc1  3.8%
20. COc1cc(C(=O)Nc2ccc(NC(C)=O)cc2)c([N+](=O)[O-])cc1OC  5.8%
21. O=C(Cc1ccc(Cl)cc1)Nc1cccc([N+](=O)[O-])c1  6.5%
22. Cc1ccc(N2C(=O)/C(=C/c3ccccc3C)C(=O)NC2=S)cc1  7%
23. O=C1NC(=O)N(c2ccccc2)C(=O)/C1=C\c1ccc(OCCOc2ccccc2)cc1  7%
24. Cc1ccc(C(=O)Oc2ccccc2C(=S)N2CCOCC2)cc1  9.1%
25. O=C(Nc1nc2ccccc2n1Cc1ccccc1Cl)c1ccc(Cl)cc1  9.4%
26. O=C(c1ccc(F)cc1)N1CCN(C2CCC(c3ccccc3)CC2)CC1 (stereo unspecified)  9.5%
27. CN(C)c1ccc(/C=N/Nc2nc(-c3cc4ccccc4oc3=O)cs2)cc1  10.4%
28. Cc1ccc2[nH]c(C)c(CN3CCCC3)c(=O)c2c1  11%
29. CSc1ccc(S(=O)(=O)N(CC(=O)Nc2ccc(Cl)cc2)c2ccc(C)cc2)cc1  11.6%
30. CCc1ccc(CN2CCN(C(=O)c3ccc(F)cc3)CC2)cc1  13.1%
31. COc1ccccc1NC(=O)C(=O)NCCO  14%
